Source: the supplement of paper PMC3334620
Over roughly 33,000 sequences, “E-score (-0.5 to 0.5)” has its median near -0.056; the highest 2% begin near 0.38. The list shows a part of the results.

target: Stb4 (UniProt P50104); experiment: PBM E-score (8-mer binding enrichment) (E-score (-0.5 to 0.5)); higher = stronger / more preferred TF binding; most listed sequences are background and not binding sites; conditions: protein concentration: 200 nM; construct: GST-DNA-binding domain
How it was run: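 For each ungapped eight-base word taken together with its reverse complement, the Universal PBM Analysis Suite assigned an E-score. Binding data came from GST-tagged yeast transcription factors, applied at about 100-200 nM, on universal all-10-mer Agilent arrays made double-stranded by primer extension. Fluorescent anti-GST marked bound protein, and scans were normalised with masliner.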

Sequence | PBM E-score
AAACTGCA | -0.0605
AAGTAGGG | -0.195
CAACCTAC | 0.0693
AGGGCCGG | 0.191
AACTGGGC | -0.0105
AACTTTTC | -0.0488
GGGACGCA | -0.161
AACATCCC | 0.232
AGTAACCA | -0.169
AACCACTC | -0.17
AAGCATCT | -0.0907
CGAGCGAC | -0.0207
CCCTATCA | -0.211
ACAATTGT | 0.0503
ACCTATGA | -0.164
ACCGGAAG | 0.388
AGAGCTAT | -0.288
GTCTACAC | -0.0696
CATCCCTA | -0.133
CCTACTGC | -0.132
AACTAACA | -0.0147
GTCAGTAA | -0.177
AATATCCG | 0.452
ATTAGCCA | -0.26
CCGGGGAC | 0.157

Sequence | PBM E-score
GTCTATCA | -0.0168
ACATGATA | 0.00881
ACAGGAAA | 0.101
ACCTCGAA | -0.105
CCCCTCAA | -0.131
AAGGTGTG | -0.059
GGGCTTAC | 0.0623
ACAGGGCT | -0.41
GTACCCCA | -0.0156
CTACGTCC | 0.106
ACATTACC | 0.131
ATTTAAGA | -0.159
ACGTAGCC | 0.0222
CCCGTGGC | 0.101
AATCCAAA | -0.0619
GCCACCTA | -0.125
GTGCAGCA | -0.0895
CATGGGCA | -0.103
AATTCACG | 0.0309
GCTGTTCA | -0.106
ACAGAATA | 0.036
GAATACAC | -0.0318
TAGGACAA | -0.255
GCAAGTGA | -0.0836
AGGTTACA | -0.181

Sequence | PBM E-score
GAGTACAA | 0.081
ATAGTGAA | -0.127
CCCGAGCA | 0.405
CGGACAAC | 0.198
CCAAGTGC | -0.0592
GACCCGGA | 0.323
GACATGGC | -0.14
CATACCCG | 0.348
ACACGCCC | 0.0932
GGAATCAA | 0.224
ACCTACAC | -0.343
GACCGGCA | 0.212
GTGATGAA | -0.174
TCCCAAGA | 0.00213
GTAATGCA | -0.0927
CACATGAC | -0.231
AATAATGT | -0.0686
CGAACGGA | 0.327
ACAAACAT | 0.0555
AAAAGCTG | -0.15
GTAACGCA | -0.0681
CCAGAGTC | -0.319
ATGTCTTA | -0.207
CCAGCTAA | -0.373
ATTCAGTA | -0.0971

Sequence | PBM E-score
ACACGGGT | 0.165
GGGTAACC | 0.18
AAATATTC | 0.0462
CGAGTAAA | 0.143
CCCTTGGC | -0.228
GTCTGGGA | -0.232
AAATAGAA | -0.148
GATATTAC | 0.185
AGCGGTGC | -0.305
CGCGTTTC | 0.065
CATGCAGA | -0.123
CTAGGCTA | -0.153
AGCGGCAC | 0.0262
AATCGTAT | -0.129
AGGTGTAG | -0.208
ACCTTGCC | 0.0883
ACGCCAAC | -0.0436
GGCCGAGA | 0.347
TGCTGGAA | -0.00327
CAACACAG | -0.278
GGCGTTGA | -0.0341
GTTACTGA | 0.0988
AACGCGTA | -0.0979
AGAACACG | 0.0149
GGCACTAC | -0.0281

Sequence | PBM E-score
CGATTTAG | 0.133
GCGCTAAA | -0.0799
GTTCGTTA | -0.0433
AAGTCGGT | 0.225
CGGTTGAG | 0.151
ATGTGCGG | 0.146
ACTATTCC | 0.211
GGTACTGA | 0.00824
GAGTCGCC | 0.0554
CGGAATAC | 0.374
ATCGTACA | -0.00518
AGGTCTCA | -0.0444
CATCCTAG | -0.164
AGGAAGAG | -0.0507
ACACTCTA | -0.00882
ACGGAGAG | 0.117
TACTAAAA | -0.0363
TCCTCACA | -0.122
ACCCGTCT | 0.0939
AAATGTCA | -0.0833
GAGAGTGA | -0.17
CACTCTTA | -0.263
GACACCTC | -0.0244
CTTGAAAC | 0.114
GCGTGTCA | -0.00144

Sequence | PBM E-score
GCCCGGGC | 0.282
ACTCCAGA | -0.286
CTTCGACA | -0.0919
ACTAGTAG | -0.0993
AGAACGAT | -0.296
ATGCGCAC | -0.0567
CAAACGAC | 0.011
AGGGCGAA | -0.0324
AAAGCGTG | -0.0283
CCTGAGGC | -0.268
CCAGCCCA | -0.161
CCGAACGA | 0.379
GGGAAACA | 0.175
ATTTTTTA | 0.0837
AATGTATG | -0.146
AGCCCGCG | 0.0998
TGTCGGAA | 0.416
GATCGCCA | -0.102
CATCCATG | -0.22
GACCGGAA | 0.316
ACTAAATC | 0.0611
CACACGGC | 0.132
AAAGATGA | -0.0904
CAGTATAG | -0.123
AGATTGAG | -0.0826

Sequence | PBM E-score
GGAAGTGA | 0.245
CAATCACC | -0.0604
AAGATGAC | -0.304
CGCGCGCC | 0.0774
CAAAACGC | 0.0775
CGCTTTAC | -0.0267
AACGGGGA | -0.08
GCCAAGGA | -0.135
CGTGTTTA | -0.00808
CGCGGACA | 0.107
GCCTGCGA | -0.339
TCATCCAA | -0.191
AATGAACT | 0.231
GCAATTGA | -0.136
CTGTTAGC | 0.0754
GCGGGAGA | 0.227
AAGAAGGA | -0.131
TGAGTGCA | -0.0867
GAGTCAAC | 0.0604
AAGGATAT | -0.0336
CCCGCAAG | -0.203
ACACCGCA | 0.0369
